In PubChem BioAssay AID485294 (National Center for Advancing Translational Sciences (NCATS), 2010):
Screen size: about 370,000 compounds; about 150 (0.041%) were called active. Inconclusive results, whose numbers are uncertain, are shown with a selection of clear calls. Calls come from the whole dose curve; as a rule, active = well fitted inhibition curve with a large enough effect; inconclusive = small, poorly fitted or top-dose-only effect; inactive = flat fitted curve, though single readings scatter. No potency is given beside an inconclusive call; the fits are too rough.

Biological target: Beta-lactamase (Escherichia coli (strain K12)) (UniProt P00811)
Test: qHTS Inhibitors of AmpC Beta-Lactamase (assay with detergent); note: nearly all actives have a fitted effect of over 25% in size;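 for activity change, negative = inhibition: 0% = no-compound wells and -100% = no-enzyme wells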
Settings: AmpC hydrolysis of nitrocefin, absorbance 480 nm, 0.01% Triton; activity change, negative = inhibition: at 114 µM (top of the series)
Summary of the method: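 AmpC (5.3 nM in the dispensed reagent) in 20 mM phosphate pH 7.0 with 0.01% (detergent screen) or 0.0001% Triton X-100 was preincubated with compounds for 15 min at room temperature. Nitrocefin was then added from an 800 uM solution, and hydrolysis was followed at 480 nm.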
Potency is the fitted concentration of half-maximal effect; tags give direction and shape of the fitted curve.

Sequence of UniProt P00811 (P00811 whole entry, looked up): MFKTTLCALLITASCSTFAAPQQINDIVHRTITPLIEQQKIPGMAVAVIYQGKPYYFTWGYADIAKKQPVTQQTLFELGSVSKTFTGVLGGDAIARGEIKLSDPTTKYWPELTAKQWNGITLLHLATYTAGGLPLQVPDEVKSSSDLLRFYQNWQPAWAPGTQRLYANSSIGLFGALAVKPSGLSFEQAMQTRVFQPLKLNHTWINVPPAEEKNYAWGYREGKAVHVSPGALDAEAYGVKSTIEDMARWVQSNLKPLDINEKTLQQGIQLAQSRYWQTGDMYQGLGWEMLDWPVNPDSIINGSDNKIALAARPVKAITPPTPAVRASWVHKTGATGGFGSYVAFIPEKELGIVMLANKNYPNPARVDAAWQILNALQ

SMILES | Potency | activity change, negative = inhibition
CC(=O)c1cn(CC(=O)Nc2c(C)cccc2C)c2ccccc12 | inconclusive [inhibitor, partial curve, poor fit] | –
COc1ccccc1/C=C(\NC(=O)c1ccc(OC)c(OC)c1)C(=O)Nc1cccc([N+](=O)[O-])c1 | – | inactive: -10.6%
CCOC(=O)c1c2n(c3c(NCc4ccccc4)ncnc13)CCCC2 | inconclusive [inhibitor, full curve] | –
O=C(Nc1ccc(N2CCCCC2)cc1)c1ccc([N+](=O)[O-])o1 | – | inactive: -4.83%
CCOC(=O)CC1C(=O)NCCN1C(=O)Nc1ccccc1 (stereo not drawn) | inconclusive [inhibitor, single point] | –
CC(=O)NC(CC(=O)Nc1ccc(S(=O)(=O)N2CCCC2)cc1)c1ccccc1 (stereo not drawn) | inconclusive [inhibitor, full curve, poor fit] | –
c1ccn(-c2ccc(-c3ccn[nH]3)cc2)c1 | – | inactive: -12.1%
COc1cccc(NC(=O)NC(C)C2CC3CCC2C3)c1 (stereo not drawn) | – | inactive: 4.01%
CC(C)(C)NC(=O)CN(C(=O)CNS(=O)(=O)c1ccc(Cl)cc1)c1ccc2c(c1)OCCO2 | inconclusive [inhibitor, full curve, poor fit] | –
CCOC(=O)c1sc(NC(=O)Nc2ccccc2F)nc1C | – | inactive: -1.8%
Cc1ccccc1CN1C(=O)C(O)(CC(=O)c2cccc(Br)c2)c2ccccc21 (stereo not drawn) | – | inactive: 11.6%
O=C(CSc1nc2[nH]ncc2c(=O)[nH]1)Nc1ccc(F)cc1 | inconclusive [inhibitor, single point] | –
COc1cc(C(CCN2CCCC2)c2c(OC)cc(OC)c3c(-c4ccccc4)cc(=O)oc23)cc(OC)c1OC (stereo not drawn) | – | inactive: 1.56%
COc1ccc([C@@H]2Sc3cc(OC)ccc3N(CCN(C(C)C)C(C)C)C(=O)[C@H]2OC(C)=O)cc1 | – | inactive: -3.28%
CC1CC(C)(C)CC2(C1)NC(=O)N(CC(=O)NCCc1c[nH]c3ccccc13)C2=O (stereo not drawn) | inconclusive [inhibitor, partial curve, poor fit] | –
Cc1ccc(S(=O)(=O)NNC(=O)c2ccccc2O)cc1 | inconclusive [inhibitor, full curve, poor fit] | –
O=C(NCc1nnc(SCC(=O)N2CCCCCC2)o1)c1ccco1 | inconclusive [inhibitor, partial curve] | –
CN(Cc1nccs1)C(=O)c1ccc(OC2CCN(CCc3ccccc3)CC2)cc1 | inconclusive [inhibitor, full curve, poor fit] | –
O=C1N[C@@H](Cc2ccccc2)C(=O)N1CCN1CCOCC1 | inconclusive [inhibitor, single point] | –
CCN(C(=O)COC(=O)/C(=C/c1ccccc1)n1nnnc1C)C1CCCCC1 | inconclusive [inhibitor, full curve, poor fit] | –
O=S(=O)(NC(=S)NC1CCCCC1)c1ccc(Br)cc1 | – | inactive: 1.53%
Cc1cc(NS(=O)(=O)c2ccccc2)n(-c2ccccc2)n1 | inconclusive [inhibitor, partial curve] | –
COc1ccc(-c2cc(-c3cccs3)c(C#N)c(SCC(=O)NCc3ccco3)n2)cc1 | inconclusive [inhibitor, full curve] | –

SMILES | Potency | activity change, negative = inhibition
Cc1ccc(C(=O)Nc2ccc(N3CCN(S(C)(=O)=O)CC3)cc2)cc1C | – | inactive: -3.05%
COc1ccc(NC(C)=O)cc1S(=O)(=O)N1CCN(Cc2cccs2)CC1 | – | inactive: 2.84%
COc1cc2[nH]c(=O)n(-c3ccc(C)cc3)c(=O)c2cc1OC | inconclusive [inhibitor, single point] | –
COc1ccc(Nc2cc(C)nc3ccc(OC)cc23)cc1 | inconclusive [inhibitor, full curve, poor fit] | –
O=C(C1=C(O)C(=O)N(CCCN2CCOCC2)C1c1ccccn1)c1cc2ccccc2o1 (stereo not drawn) | inconclusive [inhibitor, partial curve, poor fit] | –
CCOCCCN(C(=O)c1snc(C(N)=O)c1N)C(C(=O)NC1CCCC1)c1ccc(O)c(OC)c1 (stereo not drawn) | inconclusive [inhibitor, full curve, poor fit] | –
O=C(CSc1nc2cc([N+](=O)[O-])ccc2n1-c1ccccc1)NCc1ccc2c(c1)OCO2 | – | inactive: 1.7%
CCOc1ccccc1OCC(=O)NN1Cc2ccccc2C1=N | inconclusive [inhibitor, single point] | –
O=C(Nc1ccc2nsnc2c1)C1CC1 | – | inactive: 14.3%
COC(=O)c1ccc(NC(=O)c2c(NCc3ccc(OC)c(OC)c3)sc3c2CCCC3)cc1 | – | inactive: 8.16%
CCC(C)NC(=O)CS(=O)(=O)Cc1nc(-c2cccc(OC)c2)oc1C (stereo not drawn) | inconclusive [inhibitor, full curve, poor fit] | –
COC(=O)C1=CN(Cc2ccc(F)cc2)C=C(C(=O)OC)C1c1cc(OC)c(OC)c(OC)c1 | inconclusive [inhibitor, full curve, poor fit] | –
COc1ccc(S(=O)(=O)N2CCN(C)CC2)cc1C | inconclusive [inhibitor, full curve, poor fit] | –
CCN(CC)C(=O)C1CCCN(c2ncnc3c2nc2n3CCCCC2)C1 (stereo not drawn) | – | inactive: 16.3%
Cc1cc(C)n(-c2ccc(C(=O)N3CCN(S(=O)(=O)c4ccc(Cl)cc4)CC3)cc2)n1 | inconclusive [inhibitor, partial curve, poor fit] | –
CCN(c1cccc(C(F)(F)F)c1)S(=O)(=O)c1ccc2c(c1)CCN2C(C)=O | inconclusive [inhibitor, single point] | –
Cc1cc2ncn(C(=O)N3CCCCC3)c2cc1C | inconclusive [inhibitor, partial curve] | –
CCc1nc(C(N)=O)c2[nH]c(=O)n(-c3ccc(OC)cc3OC)c2n1 | inconclusive [inhibitor, partial curve] | –
COc1cccc(Nc2ccc(-n3ccnc3)nn2)c1 | – | inactive: 5.37%
CCOC(=S)SCC(=O)Nc1nc(-c2ccc(Br)cc2)cs1 | inconclusive [inhibitor, full curve, poor fit] | –
Cc1cccc(C)c1-n1c(C)nn(-c2ncc(C(F)(F)F)cc2Cl)c1=O | inconclusive [inhibitor, full curve, poor fit] | –
C=CCn1c(SCC(=O)Nc2cc(Cl)ccc2C(=O)O)nc2sc(C)c(C)c2c1=O | inconclusive [inhibitor, full curve, poor fit] | –
CCN1CCN(Cc2ccc(C)cc2C)CC1 | inconclusive [inhibitor, partial curve, poor fit] | –

SMILES | Potency | activity change, negative = inhibition
C=CCC(CC=C)(C(=O)O)c1ccccc1 | inconclusive [inhibitor, partial curve, poor fit] | –
O=S(=O)(/N=C(/Nc1cccc2ccccc12)c1ccccc1)c1ccc(Br)cc1 | inconclusive [inhibitor, single point] | –
CC1=C(C(=O)OCCOC(C)C)C(c2cccnc2)C2=C(CCCC2=O)N1 (stereo not drawn) | inconclusive [inhibitor, partial curve] | –
CCC(NC(=O)NCc1ccccc1)(C(F)(F)F)C(F)(F)F | inconclusive [inhibitor, partial curve] | –
CCCCSc1nnc2nc(C)cc(C)n12 | inconclusive [inhibitor, full curve, poor fit] | –
COc1ccc(NC(=O)COC(=O)c2ccc(S(=O)(=O)N3CCCCCC3)cc2)c(OC)c1 | inconclusive [inhibitor, partial curve, poor fit] | –
CNC(=O)c1[nH]cnc1C(=O)N[C@@H](Cc1ccccc1)C(=O)OC(C)(C)C | – | inactive: 4.83%
O=C(OCCCOC(=O)c1ccc([N+](=O)[O-])o1)c1ccc([N+](=O)[O-])o1 | inconclusive [inhibitor, partial curve, poor fit] | –
CCN(CC)C(=O)C1=C(C)Nc2nc3ccccc3n2C1c1ccc(Cl)cc1 (stereo not drawn) | – | inactive: 18.4%
Cc1cc(C(=O)CSc2nnc(C3COc4ccccc4O3)n2C)c(C)n1-c1ccc(F)cc1 (stereo not drawn) | inconclusive [inhibitor, full curve, poor fit] | –
CS(=O)(=O)N(CC(=O)NC1CCCC1)c1ccc(Oc2ccccc2)cc1 | – | inactive: -5.62%
Cc1cccn2cc(CNS(=O)(=O)c3cccc(F)c3)nc12 | – | inconclusive: -15% [inhibitor]
O=C(CSc1ccc(Cl)cc1)Nc1ccc(-c2nc3ccccc3[nH]2)cc1 | – | inactive: -7.99%
COc1ccccc1-c1sc2ccccc2c1-c1ccccc1OC | – | inactive: 3.83%
CC(C)c1ccc(/C=C2\SC(=S)N(CC(=O)NCCCN3CCOCC3)C2=O)cc1 | – | inactive: 2.16%
Cc1cccc(CSc2nnc(C)c(=O)n2N)c1 | inconclusive [inhibitor, full curve, poor fit] | –
CN1CCc2c(sc(NC(=O)c3ccc4ccccc4c3)c2C(N)=O)C1 | inconclusive [inhibitor, partial curve] | –
Cc1cccc(NC(=O)NCCCCc2ccccc2)c1 | – | inactive: 1.6%
O=C(COC(=O)c1cc([N+](=O)[O-])ccc1NCCO)Nc1cccc(S(=O)(=O)N2CCCC2)c1 | inconclusive [inhibitor, partial curve, poor fit] | –
CC(=O)c1ccc(OCCCCOc2ccc(C(C)=O)cc2)cc1 | inconclusive [inhibitor, full curve, poor fit] | –
O=C(NCc1cccnc1)c1ccc(=O)oc1 | – | inactive: -8.2%
COC(=O)c1ccc(OCC(=O)c2ccc(O)cc2O)cc1 | inconclusive [inhibitor, full curve, poor fit] | –
